Source: PubChem BioAssay (NCATS)
“And” between values parts separate entries of the source, which are not always exact repeats. Identical values can stand only once. Inconclusive means that the source gave no clear call. Such entries were picked first, then a sample of the others. Potencies beside an inconclusive call are fits to weak or partial responses and may not hold up. A structure can be active in one record and inactive in another. The source made the active and inactive calls. The call rests on the fitted dose curve; in most records, active means well fitted inhibition curve with a large enough effect; inconclusive means small, poorly fitted or top-dose-only effect; inactive means no such curve, though single readings can be large or run the other way.

biological target: Retinaldehyde dehydrogenase 3 (Homo sapiens) (UniProt P47895); experiment: qHTS for Inhibitors of the Aldehyde Dehydrogenase Family (ALDH1A3) Confirmatory screens (AID 2061311); conditions: ALDH inhibition qHTS; series mostly up to 46 µM; activity change, negative = inhibition: at the top concentration; further: nearly all actives have a fitted effect of over 60% in size
On the % scale 0 is the no-effect control and ±100 the full control effect; potency means the concentration at half of the fitted maximal effect; tags describe the fitted curve by direction and shape.

SMILES	Potency	activity change, negative = inhibition
C[C@H]1O[C@@H](O[C@H]2CC[C@]3(CO)C4CC[C@]5(C)[C@@H](C6=CC(=O)OC6)CC[C@]5(O)[C@@H]4CC[C@H]3C2)[C@H](O)[C@H](O)[C@@H]1O[C@@H]1O[C@H](CO)[C@@H](O)[C@H](O)[C@H]1O (some centres undefined)	inconclusive: 10.6 µM [inhibitor, single point]	–
CO[C@@H]1[C@H](O)[C@@H](O[C@@H]2C[C@H]3CC[C@@H]4C(CC[C@]5(C)[C@@H](C6=CC(=O)OC6)CC[C@]45O)[C@@]3(C)[C@H](O)C2)O[C@H](C)[C@@H]1O (some centres undefined)	–	inactive: -10.8% [at 25.8 µM]
COc1cc(O)c2c(c1)CCC[C@@H](O)[C@H](O)C(=O)/C=C\C[C@H](C)OC2=O	–	inactive: -0.568% [at 25.8 µM]
CN1CN(c2ccccc2)C2(CCN(CCCC(=O)c3ccc(F)cc3)CC2)C1=O	inconclusive: 22.5 µM [inhibitor, partial curve]	–
NC(=O)CI	active: 6.34 µM	–
CN1CC[C@@]2(C)c3cc(OC(=O)Nc4ccccc4)ccc3N(C)[C@@H]12	inactive and active: 7.98 µM	–
COC[C@H]1OC(=O)c2coc3c2[C@@]1(C)C1=C(C3=O)C2CCC(=O)[C@@]2(C)C[C@H]1OC(C)=O (some centres undefined)	inconclusive: 14.2 µM [inhibitor, partial curve]	–
O=[N+]([O-])/C=C/c1ccc2c(c1)OCO2	active: 15.8 µM	–
C[C@@H]1Cc2c(Cl)cc(C(=O)N[C@@H](Cc3ccccc3)C(=O)O)c(O)c2C(=O)O1	inconclusive: 9.85 µM [inhibitor, partial curve, poor fit]	–
COc1ccc2c(c[n+](C)c3c4cc5c(cc4ccc23)OCO5)c1OC	active: 7.12 µM	–

biological target: Retinaldehyde dehydrogenase 3 (Homo sapiens) (UniProt P47895); experiment: qHTS for Inhibitors of the Aldehyde Dehydrogenase Family (ALDH1A3) Validation screen (AID 2061312); conditions: ALDH1A3 enzyme inhibition qHTS validation, fluorescence; series mostly up to 42.4 µM; activity change, negative = inhibition: at the top concentration; further: nearly all actives have a fitted effect of over 45% in size

SMILES	Potency	activity change, negative = inhibition
NC(=O)CI	inconclusive: 794 nM [inhibitor, full curve, poor fit]	–
CC1=NN=C(c2ccc(N)cc2)c2cc3c(cc2C1)OCO3	inconclusive: 708 nM [inhibitor, full curve]	–
CCCN(CCC)C1CCc2cccc(O)c2C1 (centres undefined)	–	inactive: 9.68%
CN1CC[C@@]2(C)c3cc(OC(=O)Nc4ccccc4)ccc3N(C)[C@@H]12	inconclusive: 7940 nM [inhibitor, partial curve]	–
COC[C@H]1OC(=O)c2coc3c2[C@@]1(C)C1=C(C3=O)C2CCC(=O)[C@@]2(C)C[C@H]1OC(C)=O (some centres undefined)	inconclusive: 199 nM [inhibitor, full curve, poor fit] and active: 7.08 µM	–
COc1ccc2c(c[n+](C)c3c4cc5c(cc4ccc23)OCO5)c1OC	inconclusive: 355 nM [inhibitor, full curve]	–

biological target: Retinal dehydrogenase 2 (Homo sapiens) (UniProt O94788); experiment: qHTS for Inhibitors of the Aldehyde Dehydrogenase Family (ALDH1A2) Confirmation screens (AID 2061314); conditions: ALDH1A2 enzyme inhibition qHTS confirmation; series mostly up to 45.9 µM; activity, negative = inhibition: at the top concentration; further: nearly all actives have a fitted effect of over 65% in size

SMILES	activity, negative = inhibition	Potency
CO[C@@H]1[C@H](O)[C@@H](O[C@@H]2C[C@H]3CC[C@@H]4C(CC[C@]5(C)[C@@H](C6=CC(=O)OC6)CC[C@]45O)[C@@]3(C)[C@H](O)C2)O[C@H](C)[C@@H]1O (some centres undefined)	inactive: -16.1% [at 25.6 µM]	–
CN1CN(c2ccccc2)C2(CCN(CCCC(=O)c3ccc(F)cc3)CC2)C1=O	–	inconclusive: 12.7 µM [inhibitor, partial curve]
NC(=O)CI	–	inconclusive: 14.1 µM [inhibitor, partial curve, poor fit]
COC[C@H]1OC(=O)c2coc3c2[C@@]1(C)C1=C(C3=O)C2CCC(=O)[C@@]2(C)C[C@H]1OC(C)=O (some centres undefined)	–	inconclusive: 12.7 µM [inhibitor, partial curve]
O=[N+]([O-])/C=C/c1ccc2c(c1)OCO2	–	active: 35.5 µM
COc1ccc2c(c[n+](C)c3c4cc5c(cc4ccc23)OCO5)c1OC	–	inconclusive: 7.12 µM [inhibitor, full curve]

biological target: Aldehyde dehydrogenase 1A1 (Homo sapiens) (UniProt P00352); experiment: qHTS for Inhibitors of the Aldehyde Dehydrogenase Family (ALDH1A1) Confirmatory screens (AID 2061316); conditions: ALDH inhibition qHTS; series mostly up to 47.3 µM; activity change, negative = inhibition: at the top concentration; further: nearly all actives have a fitted effect of over 65% in size

SMILES	activity change, negative = inhibition	Potency
C[C@H]1O[C@@H](O[C@H]2CC[C@]3(CO)C4CC[C@]5(C)[C@@H](C6=CC(=O)OC6)CC[C@]5(O)[C@@H]4CC[C@H]3C2)[C@H](O)[C@H](O)[C@@H]1O[C@@H]1O[C@H](CO)[C@@H](O)[C@H](O)[C@H]1O (some centres undefined)	inactive: -12.4% [at 16 µM]	–
CO[C@@H]1[C@H](O)[C@@H](O[C@@H]2C[C@H]3CC[C@@H]4C(CC[C@]5(C)[C@@H](C6=CC(=O)OC6)CC[C@]45O)[C@@]3(C)[C@H](O)C2)O[C@H](C)[C@@H]1O (some centres undefined)	inactive: -15.8% [at 25.5 µM]	–
COc1cc(O)c2c(c1)CCC[C@@H](O)[C@H](O)C(=O)/C=C\C[C@H](C)OC2=O	–	inconclusive: 17.5 µM [inhibitor, partial curve]
NC(=O)CI	–	active: 20.1 µM
CN1CC[C@@]2(C)c3cc(OC(=O)Nc4ccccc4)ccc3N(C)[C@@H]12	–	inconclusive: 6.34 µM [inhibitor, partial curve]
COC[C@H]1OC(=O)c2coc3c2[C@@]1(C)C1=C(C3=O)C2CCC(=O)[C@@]2(C)C[C@H]1OC(C)=O (some centres undefined)	–	inconclusive: 11.3 µM [inhibitor, partial curve]
C[C@@H]1Cc2c(Cl)cc(C(=O)N[C@@H](Cc3ccccc3)C(=O)O)c(O)c2C(=O)O1	–	inconclusive: 15.6 µM [inhibitor, partial curve]
